Data from the supplement of paper PMC3334620.
Whole data set: some 33,000 sequences, median “E-score (-0.5 to 0.5)” near -0.032, cut for the highest 2% near 0.36. This is one part of the list.

Target: T1, Sko1 (UniProt Q02100)
T1 sequence: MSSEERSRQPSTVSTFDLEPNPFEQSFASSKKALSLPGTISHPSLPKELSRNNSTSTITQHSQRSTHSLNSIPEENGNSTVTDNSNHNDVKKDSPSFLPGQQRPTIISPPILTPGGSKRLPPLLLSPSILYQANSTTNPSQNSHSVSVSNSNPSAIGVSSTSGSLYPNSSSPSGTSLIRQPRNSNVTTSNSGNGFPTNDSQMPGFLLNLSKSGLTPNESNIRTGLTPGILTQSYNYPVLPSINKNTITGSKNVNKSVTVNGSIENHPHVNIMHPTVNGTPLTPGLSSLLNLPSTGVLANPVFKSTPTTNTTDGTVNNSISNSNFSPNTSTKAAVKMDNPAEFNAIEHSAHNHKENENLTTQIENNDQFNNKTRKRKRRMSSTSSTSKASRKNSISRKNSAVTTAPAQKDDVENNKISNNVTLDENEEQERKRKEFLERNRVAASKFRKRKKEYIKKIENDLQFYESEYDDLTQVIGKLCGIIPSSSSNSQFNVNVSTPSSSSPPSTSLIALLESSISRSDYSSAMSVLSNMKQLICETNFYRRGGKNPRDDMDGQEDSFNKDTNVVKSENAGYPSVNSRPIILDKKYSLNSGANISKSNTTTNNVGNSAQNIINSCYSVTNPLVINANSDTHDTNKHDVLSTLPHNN
Assay: PBM E-score (8-mer binding enrichment) (E-score (-0.5 to 0.5)); higher = stronger / more preferred TF binding; most listed sequences are background and not binding sites
Settings: protein concentration: 200 nM; construct: GST-full length
How it was run: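 Yeast transcription factors, full-length or as DNA-binding domains, were expressed with a GST tag using PURExpress in vitro transcription/translation. At about 100-200 nM they were applied to universal all-10-mer Agilent arrays, double-stranded by primer extension on fresh or once-stripped slides. Fluorescent anti-GST detected bound protein, and masliner normalised the scans. E-scores for ungapped eight-base words, pooled with reverse complements, came from the Universal PBM Analysis Suite.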

Compared with GAACACTA, GCACAGAA is lower in “PBM E-score” value: 0.0303 for the first, -0.0251 for the second.

First: CCGGAGTA
Second: CTGCGTTC
The “PBM E-score” value of the first is lower: -0.22 for the first, -0.0898 for the second.

Compared with CATACCAA, AGACGATC is lower in “PBM E-score” value: 0.143 for the first, -0.191 for the second.

First: ACTGGGAC
Second: AACAACGT
The “PBM E-score” value of the first is lower: -0.144 for the first, 0.316 for the second.

First: GCACAGCA
Second: CCCGCGGG
The “PBM E-score” value of the first is higher: -0.0488 for the first, -0.109 for the second.

Going from ATCGTCTG to GGACCGTA, the “PBM E-score” value falls from -0.0361 to -0.236.

Compared with ACGTGCCA, GGCGGCCA is lower in “PBM E-score” value: 0.396 for the first, -0.211 for the second.

Going from TATACTAA to ATATTCGG, the “PBM E-score” value falls from 0.0782 to 0.0091.

Going from ATTTACGC to GCTTGCTA, the “PBM E-score” value falls from 0.281 to -0.191.

First: AGTTGAGA
Second: AAGTTTCA
The “PBM E-score” value of the first is lower: -0.0321 for the first, 0.122 for the second.

Going from CGCACACA to GGCGCCAA, the “PBM E-score” value falls from 0.1 to -0.179.

Compared with CGTCAGTC, ACCGAGTC is lower in “PBM E-score” value: 0.375 for the first, -0.188 for the second.

Going from ACCGACAG to CCCGACCC, the “PBM E-score” value falls from -0.182 to -0.281.

Compared with ACTATATA, CTGATAAA is lower in “PBM E-score” value: 0.303 for the first, 0.123 for the second.

Compared with GATAGCCA, AGGCCCAG is lower in “PBM E-score” value: -0.152 for the first, -0.158 for the second.

Going from CATGCTAC to CCGTGCTC, the “PBM E-score” value falls from -0.114 to -0.252.

Compared with CCTCGTCC, GGTATGAC is higher in “PBM E-score” value: -0.209 for the first, 0.183 for the second.

Going from ATATGTTC to CCTCTGAA, the “PBM E-score” value falls from 0.024 to -0.216.

First: ATAATCAC
Second: TTACAAAA
The “PBM E-score” value of the first is higher: 0.219 for the first, 0.155 for the second.

Compared with GGCCCAGA, AAGCCGAT is higher in “PBM E-score” value: -0.342 for the first, -0.013 for the second.

Going from CCCCGGGA to AGAAGATC, the “PBM E-score” value rises from -0.363 to -0.0987.

Compared with CCTGCGGC, AAACCACC is higher in “PBM E-score” value: -0.427 for the first, -0.234 for the second.

Going from ACTACCCA to AGCAACAT, the “PBM E-score” value falls from 0.0746 to 0.0691.

Going from CCGAGCTC to CCAGTGCA, the “PBM E-score” value rises from -0.217 to -0.146.

Compared with AGGTCATA, ACATAAAT is higher in “PBM E-score” value: 0.21 for the first, 0.26 for the second.

Compared with GGACTAAC, CAGTCGAG is higher in “PBM E-score” value: -0.161 for the first, -0.129 for the second.

First: AAAGAATG
Second: GACCTGGA
The “PBM E-score” value of the first is higher: 0.157 for the first, -0.3 for the second.

First: AACCTCCT
Second: AGCCTAAC
The “PBM E-score” value of the first is lower: -0.189 for the first, -0.0471 for the second.

Going from GCCCCACC to CAATCCGA, the “PBM E-score” value rises from -0.158 to 0.0951.

First: AGTGGCCC
Second: ACCAAAAC
The “PBM E-score” value of the first is lower: -0.141 for the first, 0.0565 for the second.

Going from TAACACTA to ACCGGGAG, the “PBM E-score” value falls from 0.235 to -0.38.

First: ATGTCTCC
Second: AGGACCGG
The “PBM E-score” value of the first is higher: -0.0523 for the first, -0.319 for the second.

Compared with GGACCGGA, CGTGAAGA is higher in “PBM E-score” value: -0.365 for the first, 0.122 for the second.

Going from CTGGACGC to GAATATCA, the “PBM E-score” value rises from -0.0447 to -0.00231.

Going from CCTTCTTA to GGCAGCCA, the “PBM E-score” value falls from -0.132 to -0.314.

Going from CACAACCG to ATAAGATC, the “PBM E-score” value rises from 0.0241 to 0.0257.

First: CAGATCCC
Second: ATGTGGAC
The “PBM E-score” value of the first is lower: -0.264 for the first, -0.174 for the second.

Compared with CTACTTGA, ATGGACGA is higher in “PBM E-score” value: 0.0167 for the first, 0.201 for the second.

Compared with GCTCTAGA, TCGACCAA is higher in “PBM E-score” value: -0.381 for the first, -0.00288 for the second.

Compared with GTGGCGTA, TATTCCAA is lower in “PBM E-score” value: 0.325 for the first, 0.123 for the second.

Going from CTGTTACC to GCGTAGAC, the “PBM E-score” value rises from -0.0257 to 0.0511.

Compared with ATGTTGTG, ACCGGCGC is lower in “PBM E-score” value: 0.186 for the first, -0.0852 for the second.

Compared with ACCGCCAA, CATTCTTA is higher in “PBM E-score” value: -0.114 for the first, 0.162 for the second.

Going from AGGAACTG to CGCCAAAA, the “PBM E-score” value rises from -0.208 to 0.0404.

Compared with ACTTCGAC, CATGCTGG is lower in “PBM E-score” value: 0.0743 for the first, -0.168 for the second.

CTCTGATC and ATCCAAGA are the same in “PBM E-score” value: 0.0207 for the first, 0.0207 for the second.

First: GTGGAATA
Second: ACTCCGCG
The “PBM E-score” value of the first is higher: 0.0555 for the first, -0.107 for the second.

First: GACGAGCA
Second: ACGACAGA
The “PBM E-score” value of the first is lower: 0.0719 for the first, 0.108 for the second.

Compared with TGAGATAA, CGCTCAGA is lower in “PBM E-score” value: 0.197 for the first, 0.0013 for the second.

Going from CCTTCGGA to AGCGCATA, the “PBM E-score” value rises from -0.197 to 0.0654.

First: AACTGCCA
Second: CTTAGGTC
The “PBM E-score” value of the first is lower: -0.184 for the first, 0.0974 for the second.

Compared with AGCATACG, ATCCCACG is lower in “PBM E-score” value: 0.3 for the first, 0.079 for the second.

First: CCTATAGC
Second: CTAATATC
The “PBM E-score” value of the first is lower: -0.106 for the first, 0.163 for the second.

Going from GCCAGATA to CCGTCAGC, the “PBM E-score” value falls from -0.0254 to -0.127.

Going from ACCATCAA to CTCACTAA, the “PBM E-score” value rises from 0.0462 to 0.118.

First: GCACAGTA
Second: CGACTTTC
The “PBM E-score” value of the first is higher: 0.0858 for the first, 0.0167 for the second.

Going from CATGGGAC to GCAGGGCC, the “PBM E-score” value falls from -0.0758 to -0.219.

Going from AACGGTCA to GATGGCAA, the “PBM E-score” value rises from -0.12 to 0.014.

First: GGACGGAC
Second: AGTCCTTG
The “PBM E-score” value of the first is higher: -0.238 for the first, -0.239 for the second.

First: CGCCGCTA
Second: AGTGCCCA
The “PBM E-score” value of the first is lower: -0.329 for the first, -0.208 for the second.

Going from TAAAGCTA to ATCGTATC, the “PBM E-score” value rises from 0.0118 to 0.122.

First: GCAAGAAA
Second: CCGAGACG
The “PBM E-score” value of the first is higher: 0.0512 for the first, -0.0736 for the second.

First: CGCAAGAA
Second: AACTGCCG
The “PBM E-score” value of the first is higher: 0.0538 for the first, -0.0532 for the second.

Compared with AATACCGG, ATCGTCAG is higher in “PBM E-score” value: 0.00982 for the first, 0.263 for the second.

First: ATCACTGA
Second: CTACTGCA
The “PBM E-score” value of the first is higher: -0.0268 for the first, -0.0311 for the second.

Going from CAGTCAGG to CGCCTGTC, the “PBM E-score” value falls from -0.0033 to -0.264.

Going from GAAATATA to CAAGAGAG, the “PBM E-score” value falls from 0.24 to -0.143.

Going from TAGATACA to AAGGCGTC, the “PBM E-score” value falls from 0.197 to 0.0251.

Compared with GTCGAGGA, ACCATGCC is lower in “PBM E-score” value: -0.0503 for the first, -0.178 for the second.

Going from AACCACAG to CAGGCCGG, the “PBM E-score” value falls from -0.126 to -0.367.

First: GCCGTACC
Second: ACGAAATA
The “PBM E-score” value of the first is lower: -0.175 for the first, 0.292 for the second.

Going from CAGTCCGA to CCTGCCCA, the “PBM E-score” value falls from -0.0487 to -0.121.

Going from CCGTGGAG to CATGCGAA, the “PBM E-score” value rises from -0.359 to 0.0815.

Compared with CTGTAAAG, CCCTCATC is lower in “PBM E-score” value: -0.184 for the first, -0.29 for the second.

Going from CCTCGCAG to ACGCCAAT, the “PBM E-score” value rises from -0.247 to 0.21.

First: ATTGTGAG
Second: AATAGACG
The “PBM E-score” value of the first is lower: -0.058 for the first, 0.19 for the second.

Going from CCGCGGGC to CTAAATGA, the “PBM E-score” value rises from -0.257 to 0.148.

Going from AAGCCCTC to TCATAAAA, the “PBM E-score” value rises from -0.252 to 0.175.

Compared with ACACATAC, AAAGTGGT is lower in “PBM E-score” value: 0.124 for the first, -0.118 for the second.

First: ATCAAGCC
Second: CAAAACGG
The “PBM E-score” value of the first is higher: 0.0831 for the first, 0.0476 for the second.

Going from GCTCTTCC to AAACCGAC, the “PBM E-score” value rises from -0.105 to -0.0582.

Going from ATCTCTGA to CCTAACCG, the “PBM E-score” value falls from 0.0221 to -0.0687.

Going from ATTCATCG to CGTGCCGC, the “PBM E-score” value rises from -0.0686 to 0.117.

First: ACACTGAG
Second: ACTTGAAG
The “PBM E-score” value of the first is lower: -0.066 for the first, 0.0742 for the second.

Compared with CAGAAACA, GCAAACTA is higher in “PBM E-score” value: 0.0257 for the first, 0.11 for the second.

Compared with AATCCGAT, CCAGTGTC is lower in “PBM E-score” value: 0.101 for the first, -0.0627 for the second.
